# The list shows a part of the results.
# Tested on: PfAP2-HC AP2 domain (GST-tagged)
# Assay: gcPBM binding intensity (ln(normalized median fluorescence intensity)); higher = stronger DNA binding
# Procedure, shortened: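 After 1 h on an Agilent 4 × 180k array of primer-extended double-stranded 36-bp intergenic genomic probes and negative controls, bound GST-tagged P. falciparum DNA-binding domains were detected with Alexa488 anti-GST antibody and scanned at 488 nm. The domains had been expressed in E. coli, and binding took place in 1× PBS with 1% milk, 0.2 mg/ml BSA, 0.5% salmon testes DNA and 0.03% Triton X-100. Binding intensity is the highest Masliner-normalised natural-log median intensity across replicate spots of either probe orientation.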
row,Sequence,gcPBM binding intensity (ln)
1,AATAAATAAATATATACACACATATCTGTCTACATA [CACACA_site5708],9.9
2,TTATTTTTTTTATATATATGTATAAATATATATATA [XGTACX_negctrl_site441],9.6
3,ATATTTATATGGTTTGCACACATAACAACTATGGTT [CACACA_site3631],10
4,ATATAACATATCAATTGTACGTATTGATAATATATA [XGTACX_site2504],9.63
5,TTTTGTTTTAATTTTATTTGATTTTATTTGATTTAT [CACACA_negctrl_site692],9.67
6,AGGCACACAAACATATGTACACATATATATATATAT [XGTACX_site4723],9.91
7,TTTATTGAACGTACACATATATATATGTATATATTT [TGCATGCA_negctrl_site141],9.7
8,CAAAAGGATATGCACACACACACACGGATATTTATA [CACACA_site7099],11.4
9,TTTTGTTATTAGAGGGTGCTTATAATGAACTCCTAC,9.55
10,GACAAAATGATAGGGACACACAATATCAATGTTTAA [CACACA_site765],9.81
11,TCAATCATCTTATATAGTACACATAAAAGTATTATA [XGTACX_site8513],9.44
12,AAAAAAAAAAATCCAGTGCATATATTTTTTACATAT,9.66
13,ATTACATTAATAAGAGTGCATTATATAAGTTTTATG,9.6
14,CCACTAATAAATATTACACACATATAGATTTATATT [CACACA_site7465],9.76
15,AAAAAAAAAAATTACACACATACATATAATAATAAT [CACACA_site2193],10.2
16,CGTATATATATATACACACACATATATATATGTAAA [CACACA_site195],10.1
17,AAAAACTTAATATTCACACATATATATATATATATA [CACACA_site5240],9.6
18,TACGTTCTAATATATACACACCTGGTATTAATTATG [CACACA_site5260],9.89
19,GAAAAATTTTTATATGTGCACATGTTATATATAATT [GTGCAC_site9742],9.81
20,AAATATTATTTATTTACACACCAATCTTCTTTTCTT [CACACA_site3990],9.89
21,TTTACAAAAAATTATACACACACGTACATATAAATA [CACACA_site945],10.1
22,TTTTATTATTAATTTCTTTTTTCTCATCACTTTCAA [XGTACX_negctrl_site117],9.49
23,ATATATATAAAATATACACACATACTGTTCATTTAA [CACACA_site6149],9.83

row,Sequence,gcPBM binding intensity (ln)
1,TAATTTATGAGTAATACACACACTTGTGGATATATT [CACACA_site3790],9.8
2,ATATAATGTTGTAATAGTACTTTTTTCATATAAATA [XGTACX_site2666],9.45
3,AAAGAATACAAAATTGCACACATATTGTGAAAATGT [CACACA_site9327],10.2
4,TATTAACACAATAGCGCACACTTTTAATATTTTATA [CACACA_site1617],9.8
5,CTTAAATTGAAATGTTGTACAAAGTAAAAACAATGA [XGTACX_site2123],9.79
6,CATATTTTATTATATACATGCAATTTTAATATATAT [TGCATGCA_site544],9.61
7,TATAATTTAACGACATGTACATATAAAAAAATATTT [XGTACX_site2395],9.75
8,ATACACATTCTTCCGACATAATAAGAAAAAGAAAAA [CACACA_negctrl_site9],9.47
9,AAAATGTATTCTCTCATGCACACTTTCTTTAAGGGA [CACACA_site2196],9.55
10,TTATTTATATTTTTTTGTACACATATTGTATACATA [XGTACX_site1178],9.78
11,TGTAGATTTTGTAACACACACATATAAATACCTATA [CACACA_site7183],9.94
12,TATAAACCTTTTTGCACGCACACAAAAAAAAAATAA [CACACA_site168],9.88
13,AAACATATATACATATGTACATATATACATATATGT [XGTACX_site5779],9.66
14,TTCGGAAAAATTAAAGCACACAAAAAAAAATAAAAA [CACACA_site8296],9.84
15,GATTAACAACATATTAGTACATATATTATATATATA [XGTACX_site7646],9.61
16,GACTATAATGTTTTGGTGCGTCATGTTATGGTCATC,9.69
17,TATTTATATATATGATGTACATAAGGTGTAATGTTA [XGTACX_site5591],9.76
18,TATTTACATACAAAATGTACAAAAATATATTTTTTT [XGTACX_site888],9.65
19,TACATGAATATTTATACATGCACACTAAAATAAAGA [TGCATGCA_site611],9.75
20,ATATATATTTAATGTTGTACATAAAAAATATATAAA [XGTACX_site7774],9.59
21,ATCTCTTATATATTCACACACATATATATAATTATA [CACACA_site1502],10
22,AAATATAATAACGAACGTACTTATTATAATTTGTAA [XGTACX_site2342],9.53
23,AGAAAAAAAAAAAGTACACACATATAACATATAGAT [CACACA_site7410],10.4

row,Sequence,gcPBM binding intensity (ln)
1,ATTTATTTTCTGTGTACACATATGTTGGGTATTTTA [CACACA_site5902],9.89
2,GTATATATCCCAAAATGTACATAATTTATTATTTAT [XGTACX_site2842],9.7
3,ATAGGTAAAAAGTATACACACGTTGACACATTCTTT [CACACA_site4794],9.81
4,AAATAATACAAGGGCTGTACATAAAAAGGAGTATAT [XGTACX_site839],10
5,ATTTTAAAAAGGATAGTGCAAATGTTAAAATAGGAC,10.3
6,GAAAATTTAAAAAGAGTGCATTATATGTTTGAATAT [GTGCAC_site9564],9.59
7,CTTTTTTTCTTTCCAAGTACTAAATTCATACAAATT [XGTACX_site2605],9.59
8,AATAAAATAATAAAAGCACACAAGAATACACCCAAA [CACACA_site7919],10.6
9,TTTAACGAATAAAAATGTACAAATTTATACATTTAT [XGTACX_site2805],9.44
10,CAAAAGGATGTGGGATGTACATATGAAAAAAAAAAA [XGTACX_site8059],9.58
11,TTTTATTTATAATACTCACACATTTATATTACATAT [CACACA_site6000],9.99
12,GGTCTTTTTTTCAAAAGTACATAAATAAAAAAGGTT [XGTACX_site2894],9.38
13,TTGTATGTAAAAAAGTGTACATGAGTGATTATATAA [XGTACX_site8166],9.72
14,TAAATTTAAAAATCTGCACACATTTAAAAAAAAAAA [CACACA_site2515],9.77
15,ATTACTAAAAAATATAAACACACATATATTTTACAT [CACACA_site8633],9.88
16,AATAAATGGAATGTCACACATATATATATATATATA [CACACA_site4869],9.95
17,ATTATTTAAAAAAAATGTACATAATAAATATGAACG [XGTACX_site4010],9.58
18,AGTGTATGTATATAAACACACATACATATTTATAAC [CACACA_site6777],10.1
19,AAAAAAAAGAAAGAAAGTACAAATTATAAAATGAAC [XGTACX_site860],9.79
20,TAAATTAAAAAACACACACACAAAAAAAAAAAAAAA [CACACA_site2263],11.2
21,ATTTCTAAATGTTGGTGTACGTTTTTTTATAACCTT [XGTACX_site1752],9.93
22,GGAAAACACAAAAACTGTACATTTATTCAACATATA [XGTACX_site5831],9.71
23,TATATACATATATACACACACATATATATATATATA [CACACA_site2805],10.1

row,Sequence,gcPBM binding intensity (ln)
1,TTGATATTATTGTATAAACATAATAGAGATAAAGAG [TGCATGCA_negctrl_site455],9.82
2,CAGGTGCACTATATTACACACGCTTCTTTTTTTTTA [CACACA_site2069],9.94
3,TACAAAAAAATAAATAATAAAAAAAAATATATATAA [XGTACX_negctrl_site344],9.59
4,TGAAGGATATATTCCGTGCACATATAAATATATACA,9.58
5,AACATGTTAACTAAATGTACACACCTATGTTGATGT [XGTACX_site3777],9.93
6,TTCTTTATTTTTTCTACACACATTATGTATTCAAAG [CACACA_site3527],9.98
7,TGAAAGAACCTGATTACACACATAAGTTATAAATAT [CACACA_site6165],9.87
8,TGAAAGAATGTTAATAGTACACACAATTATTATATA [XGTACX_site7936],9.79
9,TAAGAACTATTCAGTAGTACCTATATGGATTACTAA [XGTACX_site4278],9.46
10,ATTGATATTGTATAATGTACAGGAAAAAAAAAAAAA [XGTACX_site526],9.6
11,AAATAAAGATATATATATATATATATATATAATTTT [CACACA_negctrl_site30],9.75
12,AAAATGTGCATATTTGCACACTTCAATATATATATA [CACACA_site1791],9.89
13,AAATATTTTGCATACACATGCAAATATTTTTTACAT [TGCATGCA_site554],9.59
14,AATATAAAAAGGCACACACACAAAAAAAAAAAAAAA [CACACA_site896],10.3
15,AATCTCAGAATATACTGTACTTTAAGAAAAAAAAAA [XGTACX_site110],9.26
16,AATATATATTTGTGTACACATTATATATATATATAT [CACACA_site6103],9.8
17,AAAATTTAAATAGGAAGTACGTTCACTAAGAAAATA [XGTACX_site6546],9.75
18,ATAATTTAAAAACATTGTACATTAATATATATGTAT [XGTACX_site8970],9.65
19,AGGATATGCGGACACACACACATATATATATATATA [CACACA_site5247],11
20,ATAATAACTGATAAATGTACATATAAATTTTATGAT [XGTACX_site195],9.8
21,TTTTATATTTTAAGAGTGCATTTTATATCTTTTTCT,9.57

# Source: the supplement of paper PMC11417369
